{"source": "paper PMC12820563", "about": "“FoxP3 forms a head-to-head dimer in vivo and stabilizes its multimerization on adjacent microsatellites”", "note": "The list shows a part of the results.", "data": [{"target": "T1, MBP-FoxP1dN (Mus musculus, UniProt P58462 326-579)", "T1 sequence": "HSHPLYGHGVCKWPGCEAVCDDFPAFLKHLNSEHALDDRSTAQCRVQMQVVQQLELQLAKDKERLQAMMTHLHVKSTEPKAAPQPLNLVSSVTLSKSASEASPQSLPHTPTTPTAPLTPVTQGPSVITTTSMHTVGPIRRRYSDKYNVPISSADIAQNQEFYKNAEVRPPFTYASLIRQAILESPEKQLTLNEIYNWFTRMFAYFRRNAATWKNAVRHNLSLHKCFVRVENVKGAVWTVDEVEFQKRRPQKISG", "experiment": "PD-seq (MBP pull-down with sequencing); 20 mM Tris-HCl pH 7.5, 100 mM NaCl, 1.5 mM MgCl2, 0.4 uM protein, 0.1 uM dsDNA library, 30 min, room temperature, amylose pull-down; high values mean tight binding", "settings": "protein: recombinant; tags: His6-MBP; chain copies: 2; dsDNA, one strand shown", "procedure,_shortened": "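Amylose resin was used to capture complexes formed during 30 min at room temperature in Tris pH 7.5 buffer with NaCl and MgCl2 between 0.4 µM His6-MBP-tagged mouse FoxP3 or FoxP1 fragment lacking the N-terminus, expressed in E. coli, and 0.1 µM Klenow-filled double-stranded degenerate DNA library. After three washes, the DNA was released with proteinase K, barcoded by PCR and sequenced on Illumina. Binding is pooled-replicate reads-per-million enrichment, pull-down over input.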", "values": [{"sequence": "GATGATTGTTCTCCCAGCTGATGAATTCCGATAGTCGAGTAAACAAATTTTCCTAATCTTTCTGTTCAAGCGCCATCTAC", "binding signal": "0.844 RPM ratio (pull-down/input)"}, {"sequence": "GATGATTGTTCTCCCAGCTGATGAATTAGTAGTCTCGAGTAAACAAATTTTCCTAATCTTTCTGTTCAAGCGCCATCTAC", "binding signal": "0.952 RPM ratio (pull-down/input)"}, {"sequence": "GATGATTGTTCTCCCAGCTGATGAATTGGCGTCATCGAGTAAACAAATTTTCCTAATCTTTCTGTTCAAGCGCCATCTAC", "binding signal": "1.05 RPM ratio (pull-down/input)"}, {"sequence": "GATGATTGTTCTCCCAGCTGATGAATTCGCTCCTTCGAGTAAACAAATTTTCCTAATCTTTCTGTTCAAGCGCCATCTAC", "binding signal": "0.795 RPM ratio (pull-down/input)"}, {"sequence": "GATGATTGTTCTCCCAGCTGATGAATTAAGTCTGTCGAGTAAACAAATTTTCCTAATCTTTCTGTTCAAGCGCCATCTAC", "binding signal": "0.78 RPM ratio (pull-down/input)"}, {"sequence": "GATGATTGTTCTCCCAGCTGATGAATTGTGCGTGTCGAGTAAACAAATTTTCCTAATCTTTCTGTTCAAGCGCCATCTAC", "binding signal": "1.08 RPM ratio (pull-down/input)"}, {"sequence": "GATGATTGTTCTCCCAGCTGATGAATTGAACTAGTCGAGTAAACAAATTTTCCTAATCTTTCTGTTCAAGCGCCATCTAC", "binding signal": "0.755 RPM ratio (pull-down/input)"}, {"sequence": "GATGATTGTTCTCCCAGCTGATGAATTAGCAAGCTCGAGTAAACAAATTTTCCTAATCTTTCTGTTCAAGCGCCATCTAC", "binding signal": "0.877 RPM ratio (pull-down/input)"}, {"sequence": "GATGATTGTTCTCCCAGCTGATGAATTATTGAAGTCGAGTAAACAAATTTTCCTAATCTTTCTGTTCAAGCGCCATCTAC", "binding signal": "0.999 RPM ratio (pull-down/input)"}, {"sequence": "GATGATTGTTCTCCCAGCTGATGAATTGGTTCTCTCGAGTAAACAAATTTTCCTAATCTTTCTGTTCAAGCGCCATCTAC", "binding signal": "0.911 RPM ratio (pull-down/input)"}, {"sequence": "GATGATTGTTCTCCCAGCTGATGAATTCTTGGTGTCGAGTAAACAAATTTTCCTAATCTTTCTGTTCAAGCGCCATCTAC", "binding signal": "0.919 RPM ratio (pull-down/input)"}, {"sequence": "GATGATTGTTCTCCCAGCTGATGAATTAGATTATTCGAGTAAACAAATTTTCCTAATCTTTCTGTTCAAGCGCCATCTAC", "binding signal": "0.962 RPM ratio (pull-down/input)"}, {"sequence": "GATGATTGTTCTCCCAGCTGATGAATTCTACATTTCGAGTAAACAAATTTTCCTAATCTTTCTGTTCAAGCGCCATCTAC", "binding signal": "0.931 RPM ratio (pull-down/input)"}, {"sequence": "GATGATTGTTCTCCCAGCTGATGAATTTGCTCTGTCGAGTAAACAAATTTTCCTAATCTTTCTGTTCAAGCGCCATCTAC", "binding signal": "0.957 RPM ratio (pull-down/input)"}, {"sequence": "GATGATTGTTCTCCCAGCTGATGAATTAGGTCGTTCGAGTAAACAAATTTTCCTAATCTTTCTGTTCAAGCGCCATCTAC", "binding signal": "0.944 RPM ratio (pull-down/input)"}, {"sequence": "GATGATTGTTCTCCCAGCTGATGAATTCGCGTCCTCGAGTAAACAAATTTTCCTAATCTTTCTGTTCAAGCGCCATCTAC", "binding signal": "0.919 RPM ratio (pull-down/input)"}, {"sequence": "GATGATTGTTCTCCCAGCTGATGAATTGACGCGATCGAGTAAACAAATTTTCCTAATCTTTCTGTTCAAGCGCCATCTAC", "binding signal": "1.13 RPM ratio (pull-down/input)"}, {"sequence": "GATGATTGTTCTCCCAGCTGATGAATTCTTGGCCTCGAGTAAACAAATTTTCCTAATCTTTCTGTTCAAGCGCCATCTAC", "binding signal": "0.832 RPM ratio (pull-down/input)"}, {"sequence": "GATGATTGTTCTCCCAGCTGATGAATTGCATGCCTCGAGTAAACAAATTTTCCTAATCTTTCTGTTCAAGCGCCATCTAC", "binding signal": "1.17 RPM ratio (pull-down/input)"}, {"sequence": "GATGATTGTTCTCCCAGCTGATGAATTAGTCGTTTCGAGTAAACAAATTTTCCTAATCTTTCTGTTCAAGCGCCATCTAC", "binding signal": "0.963 RPM ratio (pull-down/input)"}, {"sequence": "GATGATTGTTCTCCCAGCTGATGAATTGCCAAATTCGAGTAAACAAATTTTCCTAATCTTTCTGTTCAAGCGCCATCTAC", "binding signal": "1.1 RPM ratio (pull-down/input)"}, {"sequence": "GATGATTGTTCTCCCAGCTGATGAATTGCGGTCTTCGAGTAAACAAATTTTCCTAATCTTTCTGTTCAAGCGCCATCTAC", "binding signal": "0.952 RPM ratio (pull-down/input)"}, {"sequence": "GATGATTGTTCTCCCAGCTGATGAATTCGTGGTATCGAGTAAACAAATTTTCCTAATCTTTCTGTTCAAGCGCCATCTAC", "binding signal": "0.965 RPM ratio (pull-down/input)"}, {"sequence": "GATGATTGTTCTCCCAGCTGATGAATTCGAACTCTCGAGTAAACAAATTTTCCTAATCTTTCTGTTCAAGCGCCATCTAC", "binding signal": "0.769 RPM ratio (pull-down/input)"}, {"sequence": "GATGATTGTTCTCCCAGCTGATGAATTTGATCGGTCGAGTAAACAAATTTTCCTAATCTTTCTGTTCAAGCGCCATCTAC", "binding signal": "0.807 RPM ratio (pull-down/input)"}, {"sequence": "GATGATTGTTCTCCCAGCTGATGAATTAAATGTGTCGAGTAAACAAATTTTCCTAATCTTTCTGTTCAAGCGCCATCTAC", "binding signal": "1.02 RPM ratio (pull-down/input)"}, {"sequence": "GATGATTGTTCTCCCAGCTGATGAATTGGGGGCATCGAGTAAACAAATTTTCCTAATCTTTCTGTTCAAGCGCCATCTAC", "binding signal": "1.01 RPM ratio (pull-down/input)"}, {"sequence": "GATGATTGTTCTCCCAGCTGATGAATTTCGATGGTCGAGTAAACAAATTTTCCTAATCTTTCTGTTCAAGCGCCATCTAC", "binding signal": "0.888 RPM ratio (pull-down/input)"}, {"sequence": "GATGATTGTTCTCCCAGCTGATGAATTCACCGTTTCGAGTAAACAAATTTTCCTAATCTTTCTGTTCAAGCGCCATCTAC", "binding signal": "0.982 RPM ratio (pull-down/input)"}, {"sequence": "GATGATTGTTCTCCCAGCTGATGAATTACGGGGATCGAGTAAACAAATTTTCCTAATCTTTCTGTTCAAGCGCCATCTAC", "binding signal": "0.883 RPM ratio (pull-down/input)"}, {"sequence": "GATGATTGTTCTCCCAGCTGATGAATTCACCAATTCGAGTAAACAAATTTTCCTAATCTTTCTGTTCAAGCGCCATCTAC", "binding signal": "1.02 RPM ratio (pull-down/input)"}]}]}
